# The supplement of paper PMC11417369
# ± gives the standard deviation of the averaged measurements. The list shows a part of the results.
# System: PfAP2-I AP2 domain 3 (GST-tagged)
# Test: gcPBM binding intensity (ln(normalized median fluorescence intensity)); higher = stronger DNA binding
# Summary of the method: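 The highest Masliner-normalised natural-log median intensity across replicate spots of either probe orientation is reported as binding intensity. GST-tagged P. falciparum DNA-binding domains expressed in E. coli were applied for 1 h to an Agilent 4 × 180k array of primer-extended double-stranded 36-bp intergenic genomic probes plus negative controls, and bound protein was detected with Alexa488 anti-GST antibody and scanned at 488 nm.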
row,Sequence,gcPBM binding intensity (ln)
1,ATAATTGTTTAAAGGTGTACAATACATATATTTTAA [XGTACX_site3648],7.91 ± 0.33
2,ATTATACACCCGCGCACACACAACAAAAAAAAAAAA [CACACA_site5871],9.04 ± 0.15
3,ATGCAATTATATAGTAGTACAAATTTATAAATATAC [XGTACX_site4869],8.12 ± 0.41
4,ATATATATATATATGGGTACGTAAAAATATAATAAA [XGTACX_site4036],9.36 ± 0.23
5,TTTTCTTTCTTTCAAACACACATTAATTTTATTCAT [CACACA_site2734],7.61 ± 0.38
6,GTTGTTATATAAAATTGTACATAAAAAACAAAATAT [XGTACX_site5313],8.09 ± 0.5
7,ATAAATGGCTATAGCATATTGTATATGTGATTATAA [CACACA_negctrl_site948],7.7 ± 0.55
8,TCCATGCAGAAACACACACACAAAAAAAAATTCTTT [CACACA_site4099],7.83 ± 0.48
9,AAAAAAATTACATATCCATTTTAACATAATAAATAG [GTGCAC_negctrl_site618],7.56 ± 0.45
10,TTACGAATAAAACAGTGTACATTGAATTTCTATGAG [XGTACX_site4771],7.62 ± 0.53
11,ATCTATGGGTAGTATACACACTGTATATTTAGGAAT [CACACA_site5569],7.78 ± 0.68
12,ATTCTATTCTCCTTCACACACAAAAATATTTCATCA [CACACA_site2360],8.21 ± 0.59
13,TTTTTGCAAAAAGAAATAATTTTATTTTAGTTCGGA [CACACA_negctrl_site1718],7.41 ± 0.53
14,ACTAATAACAAAAGCTTGCACTTTTTTTTTCCTAAT,8.5 ± 0.79
15,TATAATTTTCTTAGTAGTACATTTTAAATCTACTAC [XGTACX_site2621],7.64 ± 0.35
16,TGTATCCACATATGTACACACATATATCTGTATATG [CACACA_site5668],8.09 ± 0.42
17,TATGTACAAATATGTACACACACACCGATATATATA [CACACA_site4487],8.29 ± 0.73
18,ATATAAGATTACAAAAATTATGTGTAAATATTTAAT [XGTACX_negctrl_site448],7.86 ± 0.52
19,AAAAAAAAAAAAAAAAGTACAAAAATTATATTAAGA [XGTACX_site4255],8.53 ± 0.3
20,AATTATATATAACGTAGTACATATTATAAACCACGT [XGTACX_site8816],8.28 ± 0.34
21,ACCTATATAAATTATACACACAAATATAAATATATA [CACACA_site2843],7.83 ± 0.38
22,ATATTCCTTTAATATTGTACTATTTTTTTCCTTATA [XGTACX_site8659],7.83 ± 0.58

row,Sequence,gcPBM binding intensity (ln)
1,TGTCATAAAACCGTTTGTACATATTAATAGACACCT [XGTACX_site4520],7.76 ± 0.46
2,TTGTTATTCCACCGTTGTACAGTTATATACATACAC [XGTACX_site8296],8.8 ± 0.25
3,TATAATAATAATGATAGTACGTATGAGTTCAAGAAA [XGTACX_site4918],7.92 ± 0.49
4,ATATTAAGAATATATACACACATAAGTATTGTATAT [CACACA_site6110],7.29 ± 0.5
5,ATAAAATAAAATAAATGTACACGAAAAAAAATATTT [XGTACX_site3747],8.49 ± 0.43
6,TATTCGTGCAATAGTAGTACACTTATAAATTATTCT [XGTACX_site4899],10.7 ± 0.61
7,TTACTTGTTTATTTTATTTTTTTTTTTTTTTTGTTA [TGCATGCA_negctrl_site266],7.24 ± 0.68
8,AGTGAGAAATACATAATAATACATTATGTGCATATT [XGTACX_negctrl_site247],8.8 ± 0.014
9,GTACACATATATATATATATATATATATATATATTA [CACACA_negctrl_site1580],8.51 ± 0.33
10,AAGAATATTTTTTTCTGTACATATAATTTATATACG [XGTACX_site5801],7.64 ± 0.44
11,TTCATTTACCCTTATTAACACACAAAATATAATACG [CACACA_site8821],8 ± 0.34
12,TGTATATTATAAGATAGTACATATATATAATATATA [XGTACX_site1297],7.68 ± 0.35
13,ATCTTATATATACGTTGTACTACAGGATATGTCATA [XGTACX_site5734],8.03 ± 0.37
14,ATAAATATCATATATATACACACGTAATACATAATA [CACACA_site4001],7.7 ± 0.57
15,AAGGAGATAATTTATTGTACATATAATAAATGAACA [XGTACX_site6252],7.62 ± 0.41
16,TCTTACAAAAAAAAAAAAAAATAAAATAAAATATAT [CACACA_negctrl_site1575],7.42 ± 0.48
17,TTAATATTATGTTAAAGTACTTTATATATATATAAT [XGTACX_site2646],7.7 ± 0.4
18,ACATACATATATATACGTACATATATATTTATATAT [XGTACX_site5799],7.92 ± 0.4
19,ATTCTAAATATCAGTGCACACATTTCTACGCAAAGT [CACACA_site474],10.62 ± 0.042
20,TAATTACAAAAACATACACACAAAAAAAAAAAAAAA [CACACA_site3782],8.01 ± 0.61
21,AGCAAATACAAACACACACACACATATACATATATA [CACACA_site3497],8 ± 0.5
22,GTTGGTAGATTTATTTGTACATATGTATCATATTAT [XGTACX_site7135],7.92 ± 0.79

row,Sequence,gcPBM binding intensity (ln)
1,AAAAATTTATTTTGTTTTTTAAGATTTTTTTTTTTT [CACACA_negctrl_site1210],7.16 ± 0.35
2,TATTAATTTATATCAACACACAAAATCAATATACTT [CACACA_site1757],7.61 ± 0.6
3,ATATAGATCAGACACACACACATGTTTTAAAACTAT [CACACA_site6186],8.04 ± 0.79
4,AAGGAATAATATAAAACACACACATAAATATAAATA [CACACA_site9115],7.82 ± 0.5
5,CGAAATATTATGTACGCACACACATTTTTAATATAT [CACACA_site3852],8.34 ± 0.34
6,TTCTATATTTTAGCTGATAATATTATGAGCTTCACT [XGTACX_negctrl_site427],7.54 ± 0.65
7,AACATAAATATATATAGTACATATATATATATTCAA [XGTACX_site7287],7.55 ± 0.28
8,TCTTTAATGAACAAATGTACAAGAACAATACCCGCA [XGTACX_site2047],7.99 ± 0.56
9,CTTTAACCTTTTTATTGTACTTTTAATATTTTAAAA [XGTACX_site4457],8.18 ± 0.33
10,AATATATGGTATAATTGTACAAAAAAAAAAAAAAAA [XGTACX_site1476],8.13 ± 0.6
11,GTGAAATGGAAAAAAAGTACAGATTACATAAGTATT [XGTACX_site6355],7.83 ± 0.62
12,TATTTTAATTATAAATTTAAAAAAAAAAAGAAAAAA [CACACA_negctrl_site1674],7.5 ± 0.45
13,TGCTTATATATACGTGCACACATATATATAAGATAT [CACACA_site8516],10.9 ± 0.11
14,CTGGAGGATGAAAAAAGTACAAAAGGAGGAAATGTA [XGTACX_site8846],8.07 ± 0.47
15,AGCTCATGCAGGTGTACACAAAAAGAAAAAAAATAA [CACACA_site4828],8.76 ± 0.18
16,AAAACAAATATATTAACACACAAACATATAAACAAA [CACACA_site6052],7.97 ± 0.47
17,ATAAATAATGTTGACACACACAATAATCTTATTATG [CACACA_site3593],7.73 ± 0.52
18,CCCCATATAATGAACACACACACTCCTCATAATTAA [CACACA_site628],8.47 ± 0.71
19,ATGTCCTCAATGTTTACACACTCTTTTATATAAGTT [CACACA_site1460],8.5 ± 0.41
20,ATTATTATTAATAGTACACACTATGGCATTTCAATA [CACACA_site5388],8 ± 0.29
21,TATATAACTGTCTTCACACACACATATAAATAAATA [CACACA_site7317],7.96 ± 0.42
22,TATTTCACAACTTGTCGTACATTAATTGTATTATTT [XGTACX_site997],8.2 ± 0.44

row,Sequence,gcPBM binding intensity (ln)
1,ATCTTTCATCTACCAAGTACAAATTACTTTTTTTTT [XGTACX_site7001],8.04 ± 0.64
2,TTAGGTGTATATAATTGTACATTTTGGAAATTATAC [XGTACX_site5492],7.7 ± 0.54
3,TCTTATTTAAAAATAGCACACATTATGTATATATAT [CACACA_site2822],8.39 ± 0.67
4,AGCTCGGAAAAATTAGCATGCAAAAAAAAAAAAAAA [TGCATGCA_site658],8.13 ± 0.73
5,TGAAACCATAAAGAATGTACACAGCGGTATAAGTTA [XGTACX_site674],7.91 ± 0.8
6,AATAAAATAAGAAGCACACAAATATTATATATAAAA [CACACA_site3980],7.87 ± 0.62
7,TTTTAAATAATACATACATGCATATATACACATATA [TGCATGCA_site8],8.16 ± 0.83
8,TTAATATATTTAAATATATATAAAATATATAATATG [CACACA_negctrl_site880],7.34 ± 0.37
9,TTCTTTTCTTCTACATGTACAAATATTATATATATA [XGTACX_site2996],8.46 ± 0.46
10,TTTTGGAATTTTAGCTGTACTTTTCCTATTTTGTAT [XGTACX_site7679],7.96 ± 0.36
11,TTGTGTTTTACATATACATGCAAATTTTTTTTTTTA [TGCATGCA_site303],7.56 ± 0.57
12,TAAATCATTTCATGGCATTTACACAAAATTTTTTAA [CACACA_negctrl_site1260],7.6 ± 0.68
13,TATATATAATATTATACACACATATATGCATAATAT [CACACA_site54],8.57 ± 0.73
14,TATTTATTTATATAAACACACATAAATATAAATATA [CACACA_site6653],7.62 ± 0.35
15,TATAGCATAAATATGTGTACATATTTATATGATATT [XGTACX_site6333],7.63 ± 0.3
16,ATATATATTTAAAAAAGTACAGAAGAAAATAACCCA [XGTACX_site642],8.18 ± 0.31
17,TATTACACATATTATACACACATATATTATATATAT [CACACA_site4951],8.34 ± 0.28
18,TAACATATTTTTAATACACACTTAAAAAAGTACTTA [CACACA_site4875],8 ± 0.34
19,TTAAATTGAATTAGTTAACACACAACTTTTATTTCA [CACACA_site8921],7.5 ± 0.54
20,TCTTCATACGACTAAAAAACATTAGACTGATAAAAA [CACACA_negctrl_site628],7.71 ± 0.45
21,AAATACAAAATTGTTACACACATATTAAGTATGACA [CACACA_site4421],7.38 ± 0.57
22,AGTTTAGAATTTAATACACACAAAAAAAAAAAATTA [CACACA_site7698],7.63 ± 0.36
